Results as given in article PMC4336329 (PLoS ONE, 2015).
Among all 310,000 compounds or so, about 14,000 (4.5%) showed an effect of 50% or more. Effects have a minus sign here. Some of the results follow.

What follows are compounds tested against human ether-à-go-go-related gene (hERG) potassium channel (human, UniProt Q12809) (assay: primary screen, population patch clamp on CHO cells stably expressing hERG).
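Note: peak tail current of the secondary pulse compared with the same well before compound.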

human ether-à-go-go-related gene (hERG) potassium channel, sequence (Q12809 whole entry, looked up): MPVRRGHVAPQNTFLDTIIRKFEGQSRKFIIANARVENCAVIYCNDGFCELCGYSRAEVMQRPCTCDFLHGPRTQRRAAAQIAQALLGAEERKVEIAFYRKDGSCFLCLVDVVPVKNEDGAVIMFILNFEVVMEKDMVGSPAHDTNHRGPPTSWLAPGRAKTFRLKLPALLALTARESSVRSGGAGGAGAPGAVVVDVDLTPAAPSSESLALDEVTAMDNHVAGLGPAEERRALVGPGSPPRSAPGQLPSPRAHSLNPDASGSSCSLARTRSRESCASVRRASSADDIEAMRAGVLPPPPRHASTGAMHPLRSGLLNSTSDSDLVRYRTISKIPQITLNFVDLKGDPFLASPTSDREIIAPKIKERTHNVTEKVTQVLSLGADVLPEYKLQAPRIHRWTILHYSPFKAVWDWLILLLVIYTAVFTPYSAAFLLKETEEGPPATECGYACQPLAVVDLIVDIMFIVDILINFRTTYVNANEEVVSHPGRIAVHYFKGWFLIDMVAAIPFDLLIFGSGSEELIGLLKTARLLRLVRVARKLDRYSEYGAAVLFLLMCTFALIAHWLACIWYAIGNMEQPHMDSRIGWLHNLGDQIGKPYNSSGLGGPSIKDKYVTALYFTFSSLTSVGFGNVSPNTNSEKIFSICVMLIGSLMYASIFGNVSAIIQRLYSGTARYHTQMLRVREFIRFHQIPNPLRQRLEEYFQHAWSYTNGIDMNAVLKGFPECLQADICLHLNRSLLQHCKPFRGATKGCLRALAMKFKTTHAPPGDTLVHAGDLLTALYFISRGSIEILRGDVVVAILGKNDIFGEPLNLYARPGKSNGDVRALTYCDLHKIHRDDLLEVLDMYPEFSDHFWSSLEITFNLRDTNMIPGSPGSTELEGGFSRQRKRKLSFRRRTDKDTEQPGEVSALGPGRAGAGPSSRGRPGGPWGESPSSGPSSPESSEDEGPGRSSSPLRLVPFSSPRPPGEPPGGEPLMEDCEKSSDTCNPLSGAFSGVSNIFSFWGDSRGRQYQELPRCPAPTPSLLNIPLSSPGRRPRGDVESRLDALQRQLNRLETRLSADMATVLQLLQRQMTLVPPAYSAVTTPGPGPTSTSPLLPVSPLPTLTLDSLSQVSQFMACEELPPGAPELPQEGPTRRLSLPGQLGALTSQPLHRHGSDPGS

| SMILES | hERG current change (%, negative = inhibition) at 10uM [%] |
| --- | --- |
| COc1ccccc1OCCn1cc(C=O)c2ccccc21 | 8.32 |
| CCc1ccc(S(=O)(=O)Nc2ccc(-c3ccc4nnc(C)n4n3)cc2)s1 | 2.31 |
| O=C(Nc1ccc2c(c1)OCO2)N1CCN(c2ncc(C(F)(F)F)cc2Cl)CC1 | -2.57 |
| C/C(CC1(O)/C(=N/O)CCc2nonc21)=N\O (stereo not drawn) | 18.3 |
| COc1cccc2cc(C(C)N(CCCN3CCOCC3)C(=S)Nc3cc(C)ccc3C)oc12 (stereo not drawn) | 1.47 |
| O=S(=O)(c1ccc(Cl)nc1)N1CCN(Cc2ccc3c(c2)OCO3)CC1 | -23.9 |
| c1ccc(C(c2ccccc2)c2noc(CN3CCN(CC4CC4)CC3)n2)cc1 | -61.6 |
| COc1cc(CNc2ccc3[nH]c(=O)[nH]c3c2)cc(Cl)c1OCC(=O)NC(C)(C)C | 4.56 |
| O=C(Nc1ccc(Cl)cn1)c1cccc(F)c1 | -5.06 |
| COc1ccnc(N=CNOCc2ccc(F)cc2Cl)c1C#N | 15.9 |
| Cc1noc(C)c1CSc1nnc2scc(-c3ccccc3)n12 | -35.6 |
| N#Cc1c(C(F)(F)F)cc(-c2ccccc2Cl)[nH]c1=O | 8.55 |
| O=C(O)c1cc2nc(C3CC3)cc(C(F)(F)F)n2n1 | 12.9 |
| Cc1ccc(N2CC(C(=O)NCc3ccc4c(c3)OCO4)CC2=O)cc1C (stereo not drawn) | -15.6 |
| O=C1c2cccnc2C(=O)N1Cc1ccc(S(=O)(=O)NCc2ccco2)cc1 | 13.4 |
| O=C(Oc1ccc(Br)cc1)C1CC(=O)N(c2ccc(F)cc2)C1 (stereo not drawn) | -10.5 |
| Cc1cccc(C(=O)N[C@H](C(=O)Nc2ccc(S(=O)(=O)NC3=NCCCCC3)cc2)C(C)C)c1 | 7.47 |
| CCOC(=O)c1ccc(S(=O)(=O)N2CCN(CC(O)COc3ccc(C#N)cc3)CC2)cc1.O=C(O)C(=O)O (stereo not drawn) | -63.2 |
| CC(=O)C(Sc1nc(N(C)C)nc(N(C)C)n1)C(=O)Nc1ccccc1 (stereo not drawn) | -3.04 |
| Cc1cc(-c2ccc(/C=N/n3cnnc3)o2)ccc1Cl | -9 |
| CC(=O)c1cnn(-c2ccc(Cl)c(Cl)c2Cl)c1C | -8.45 |
| COc1ccc(C(=O)Nc2ccc(-c3n[nH]c(=S)o3)cc2)cc1 | 20.8 |

| SMILES | hERG current change (%, negative = inhibition) at 10uM [%] |
| --- | --- |
| Cc1occc1C(=O)Nc1cccc(C(=O)NCc2ccccc2)c1 | -30.3 |
| COC(=O)CSc1nc2sccc2c(=O)n1-c1ccccc1 | 5.26 |
| O=C(c1cncs1)N1CCCC(CNS(=O)(=O)c2cccs2)C1 (stereo not drawn) | 18.3 |
| Cc1cc(C)nc(SCc2nnc(SCC(=O)Nc3cc(C(F)(F)F)ccc3Cl)o2)n1 | -29.9 |
| NC(=O)c1ccccc1NC(=O)Nc1cccc(Cl)c1Cl | 8.98 |
| Cc1ccc(C2C(C#N)=C(N)Oc3n[nH]c(C)c32)cc1 (stereo not drawn) | 7.32 |
| CC1CCN(Cc2nc3c(c(=O)n(C)c(=O)n3C)n2CCCc2ccccc2)CC1 | -8.01 |
| O=C(Nc1ccc(-c2cccc(F)c2)cc1)C1CCCN(Cc2ccccn2)C1 (stereo not drawn) | -42.3 |
| CCOCC(=O)Nc1cc(C(=O)Nc2cc(C)cc(C)c2)ccc1Cl | -2.29 |
| COc1ccc(CCNC(=O)C(=O)NCCCN2CCOCC2)cc1 | 7.99 |
| Cc1ccc(NC(=O)C(=O)NCCc2c[nH]c3ccccc23)cc1C | 15.8 |
| O=C(c1ccc2c3n(nc2c1)-c1ccc(Cl)cc1CO3)N1CCOCC1 | -5.05 |
| O=C(N/N=C/c1cccnc1)c1cc(Br)ccc1O | 30.5 |
| Cc1[nH][nH]c(=O)c1C=Nc1ccc(C(F)(F)F)cc1 | 17.4 |
| COc1ccc(-c2nnc(SCC(=O)N3CCOCC3)n2C)cc1OC | -1.06 |
| COC(=O)c1c(NC(C)=O)sc(C(=O)Nc2ccccc2OC)c1C | 16.2 |
| CN(CCCC(=O)NC1CC(C)(C)NC(C)(C)C1)S(=O)(=O)c1ccc([N+](=O)[O-])cc1 | 12.5 |
| CC(C)(C)c1ccc(C(=O)N2CCCC2c2cccs2)cc1 (stereo not drawn) | 19.2 |
| CN(C)c1cccc(C(=O)N/C=C/n2cnc3cc(C(F)(F)F)ccc32)c1 | 26.6 |
| CCOc1ccc(-c2cc(CCCC(=O)Nc3cc(OC)ccc3OC)no2)cc1 | -7.32 |
| CC(C)(C)NC(=O)/C(=C\C=C\c1ccccc1)NC(=O)c1ccc([N+](=O)[O-])cc1 | -35.1 |
| CCn1c(NCc2cc(OC)c(OC)c(OC)c2)nc2ccccc21.Cl | -25.3 |

| SMILES | hERG current change (%, negative = inhibition) at 10uM [%] |
| --- | --- |
| COc1ccc(OC)c(NC(=O)CS(=O)(=O)c2ccccc2)c1 | -4.1 |
| Oc1ccc(N=Cc2ccc(-c3cccs3)s2)cc1 | -0.074 |
| NS(=O)(=O)c1ccc(CCNC(=O)CSc2nc3ccsc3c(=O)n2CCCCC(=O)O)cc1 | 70.7 |
| COc1cc(/C=N/NC(=O)c2ccc(-n3cccc3)cc2)ccc1O | -40.1 |
| Cc1cc2c3c(c1)C(C)CC(C)(C)N3C(=O)C2=O (stereo not drawn) | 0.145 |
| COc1ccc(NC(=O)c2ccc(S(=O)(=O)N3CCOCC3)o2)cc1 | 0.458 |
| O=C(CNC(=O)c1ccc(S(=O)(=O)N2CCCC2)cc1)N/N=C/c1c(Cl)cccc1Cl | 6.64 |
| Cc1c(CCC(=O)O)c(=O)oc2c(C)c(OCc3ccccc3Cl)ccc12 | 16.7 |
| CN(C)CCCN(C(=O)c1ccc(C(=O)c2ccccc2)cc1)c1nc2c(F)cccc2s1 | -67.3 |
| OC(CNCCNc1ncccc1C(F)(F)F)COc1ccc(F)cc1 (stereo not drawn) | -72 |
| Cc1ccc(NC(=O)Cn2nc(C)c3ccccc3c2=O)cc1 | -7.32 |
| COc1ccc(C(O)Cn2cc([N+](=O)[O-])nc2C)cc1 (stereo not drawn) | 13 |
| COc1cccc(CNC(=O)CNC(=O)c2cccs2)c1 | 8.57 |
| COc1ccc(/C(N)=N/OC(=O)Cc2ccc(C)cc2)cc1OC | 8.62 |
| Cc1cc(NC(=O)Cn2nc(-c3cccs3)ccc2=O)cc(C)c1Br | 24.9 |
| Cc1ccnc(Nc2nc3ccccc3s2)n1 | -4.71 |
| Cc1ccc(NC(=O)CSc2nc(=O)n(CCCN3CCOCC3)c3c2CCCC3)cc1 | -45.5 |
| O=C(COC(=O)c1cccc(S(=O)(=O)N2CCOCC2)c1)Nc1ncc(C(F)(F)F)cc1Cl | -48.8 |
| CC1=NC(Nc2nc(C)c3ccccc3n2)=NC(C)(C)C1 | -69.4 |
| CS(=O)(=O)c1cccc(NC(=O)C2CCCN2S(=O)(=O)c2ccc(F)cc2)c1 (stereo not drawn) | 7.77 |
| COc1ccc(C2CC(c3ccccc3)=NN2S(=O)(=O)c2ccccc2)c(OC)c1 (stereo not drawn) | 6 |
| CC(=O)N/C(=N\OCc1ccc(Br)cc1)c1nonc1NC(C)=O | 12.3 |

| SMILES | hERG current change (%, negative = inhibition) at 10uM [%] |
| --- | --- |
| O=C(CN1CCCCC1)Nc1ccc(F)c(Cl)c1 | -4.98 |
| Cc1ccc(C(=O)NC(=S)NNC(=O)c2ccccc2[N+](=O)[O-])cc1 | 14.2 |
| CC(C(=O)Nc1ccc(S(=O)(=O)N2CCOCC2)cc1)N1CCN(c2ccccn2)CC1 (stereo not drawn) | -4.31 |
| O=C(C[n+]1cc(-c2ccccc2)n2c1CCC2)Nc1nc(-c2ccc(F)cc2)cs1.[Cl-] | -20.3 |
| COc1ccc(C(=O)OCC(=O)c2cc(OC)ccc2OC)c(OC)c1 | 6.44 |
| CCCn1c(N)c(C(=O)CSc2nnnn2-c2ccc(O)cc2)c(=O)n(C)c1=O | 5.2 |
| O=C(CCc1ccccc1O)NC1CCCc2ccccc21 (stereo not drawn) | -20.7 |
| COc1cccc(CNC(=O)COC(=O)C2CCN(c3ccc(C(F)(F)F)cn3)CC2)c1 | -12.8 |
| CS(=O)(=O)N1CCc2cc(C(=O)N3CCN(c4ccc(F)cc4)CC3)ccc21 | -16.3 |
| Cc1ccc(-c2ccc(S(=O)(=O)NCC3CCCO3)cc2)cc1 (stereo not drawn) | 26.2 |
| Cc1cc(=O)n2nc(N3CCCC3C(=O)Nc3cccc(F)c3)sc2n1 (stereo not drawn) | -26.4 |
| COCCNC(=O)C1CCC(=O)N(c2ccc(OC)cc2)C1c1ccc(OC)c(OC)c1 (stereo not drawn) | 0.796 |
| O=C(O)c1cccc(Cn2c(Cl)c(/C=N/Nc3ccccc3)sc2=O)c1 | 39.6 |
| Cc1cccc(C)c1NC(=S)N/N=C1\CC2CC=CC12 (stereo not drawn) | -14.9 |
| O=C1NCCSC1c1ccccc1 (stereo not drawn) | 19.1 |
| Nc1c(C(=O)Nc2ccc3c(c2)OCCO3)nnn1Cc1ccc(F)cc1 | -2.38 |
| O=C(Nc1ccccc1C(=O)N1CCN(c2cccc(Cl)c2)CC1)C1=CSCCO1 | -21.1 |
| COc1ccc(CCNC(=O)CSc2ccc3ccccc3c2)cc1OC | -9.17 |
| O=c1[nH]c(=O)n(C2CCCO2)cc1Br (stereo not drawn) | 6.76 |
| O=C(CCNC(=O)c1ccccc1Cl)Nc1nnc(C2CC2)s1 | 26.4 |
| Cc1ccc(-c2nc3ncccn3c2Nc2ccc3c(c2)OCCO3)cc1 | 12.1 |
